Out of some 310,000 compounds screened, about 2,200 (0.71%) showed an effect of 50% or more. The effect is printed as a negative number. The list shows a part of the results.
target: human ether-à-go-go-related gene (hERG) potassium channel (human, UniProt Q12809); assay: primary screen, population patch clamp on CHO cells stably expressing hERG
Sequence (Q12809 whole entry, looked up): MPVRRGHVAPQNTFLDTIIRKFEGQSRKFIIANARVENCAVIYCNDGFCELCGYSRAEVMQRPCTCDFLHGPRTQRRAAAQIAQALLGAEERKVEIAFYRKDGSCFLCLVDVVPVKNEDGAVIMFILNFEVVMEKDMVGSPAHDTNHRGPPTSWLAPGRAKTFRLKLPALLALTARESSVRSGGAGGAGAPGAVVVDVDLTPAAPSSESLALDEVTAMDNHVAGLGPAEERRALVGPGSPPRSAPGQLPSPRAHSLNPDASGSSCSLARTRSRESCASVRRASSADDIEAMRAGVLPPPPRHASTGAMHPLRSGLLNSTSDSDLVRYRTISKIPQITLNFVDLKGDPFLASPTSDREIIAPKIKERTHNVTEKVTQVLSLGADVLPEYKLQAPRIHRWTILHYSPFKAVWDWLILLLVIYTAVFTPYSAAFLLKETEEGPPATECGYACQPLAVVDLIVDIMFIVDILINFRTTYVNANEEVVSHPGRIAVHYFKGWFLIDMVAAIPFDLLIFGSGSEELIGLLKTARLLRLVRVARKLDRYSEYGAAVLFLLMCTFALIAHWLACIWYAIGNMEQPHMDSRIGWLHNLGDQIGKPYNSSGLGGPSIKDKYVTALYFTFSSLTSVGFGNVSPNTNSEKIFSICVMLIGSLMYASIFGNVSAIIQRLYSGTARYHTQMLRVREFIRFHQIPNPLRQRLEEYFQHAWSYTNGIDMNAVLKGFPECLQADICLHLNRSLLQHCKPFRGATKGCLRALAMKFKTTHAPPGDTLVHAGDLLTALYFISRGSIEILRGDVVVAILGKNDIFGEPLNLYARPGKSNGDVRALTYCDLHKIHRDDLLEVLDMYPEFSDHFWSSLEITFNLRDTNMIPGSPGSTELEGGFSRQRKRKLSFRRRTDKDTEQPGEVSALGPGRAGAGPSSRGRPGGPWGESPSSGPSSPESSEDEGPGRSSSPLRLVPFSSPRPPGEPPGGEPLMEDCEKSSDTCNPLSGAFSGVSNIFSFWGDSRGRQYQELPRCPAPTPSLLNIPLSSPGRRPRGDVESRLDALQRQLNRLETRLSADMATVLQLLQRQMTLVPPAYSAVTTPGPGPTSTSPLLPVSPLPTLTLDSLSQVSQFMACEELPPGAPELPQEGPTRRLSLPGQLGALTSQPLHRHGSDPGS

Q: For `CCNC(=S)NC1CC2CCC(C1)N2Cc1ccccc1` (centres unmarked), which “hERG current change (%, negative = inhibition) at 1uM” value is on record?
A: Its value is -3.16%.

Q: For `O=C1CC(N2CCOCC2)C(=O)N1CCc1ccccc1` (centres unmarked), which “hERG current change (%, negative = inhibition) at 1uM” value is on record?
A: The value was 9.9%.

Q: How did the “hERG current change (%, negative = inhibition) at 1uM” value turn out when `Cc1ccccc1-c1nc(CN2CCC(C(=O)NCCC3=CCCCC3)CC2)c(C)o1` was run?
A: The value was -32%.

Q: With `COc1ccc(NS(=O)(=O)c2c(F)cccc2F)cc1S(=O)(=O)N1CCOCC1` as the compound, how does the “hERG current change (%, negative = inhibition) at 1uM” value read?
A: Its value is 12%.

Q: With `Cc1cccc(NC(NC(=O)c2cccnc2)C(Cl)(Cl)Cl)c1` (centres unmarked) as the compound, how does the “hERG current change (%, negative = inhibition) at 1uM” value read?
A: The value was 1.37%.

Q: With `CCc1nnc(NC(=O)CSc2nc(C)nc3c2c(=O)n(C)c(=O)n3C)s1` as the compound, how does the “hERG current change (%, negative = inhibition) at 1uM” value read?
A: Its value is 9.24%.

Q: Which “hERG current change (%, negative = inhibition) at 1uM” value does the source give for `O=C(CNC(=O)c1ccc(Cl)cc1Cl)Nc1ccc(F)cc1` here?
A: The value was 10.1%.

Q: `Clc1cccc(Cl)c1CSc1nnc(-c2sccc2-n2cccc2)o1` was tested. Which “hERG current change (%, negative = inhibition) at 1uM” value did it give?
A: The value was 12.9%.

Q: Which “hERG current change (%, negative = inhibition) at 1uM” value does the source give for `COc1ccccc1NC(=O)CN1C(=O)C2(OCCCO2)c2ccccc21` here?
A: Its value is -2.64%.

Q: `O=C(NCc1nnc2c(C(F)(F)F)cc(Cl)cn12)c1ccco1` was tested. Which “hERG current change (%, negative = inhibition) at 1uM” value did it give?
A: Its value is 4.35%.

Q: With `Cc1cc(C(=O)NCc2ccccc2F)c2ccccc2n1` as the compound, how does the “hERG current change (%, negative = inhibition) at 1uM” value read?
A: The value was 13.2%.

Q: How did the “hERG current change (%, negative = inhibition) at 1uM” value turn out when `CCOC(=O)N1CCN(C(=O)c2cc(S(=O)(=O)N3CCc4ccccc43)ccc2OC)CC1` was run?
A: Its value is -7.66%.

Q: With `O=C(NCc1ccc(Cl)cc1)C1CCC(CNc2c(N3CCCCC3)c(=O)c2=O)CC1` (centres unmarked) as the compound, how does the “hERG current change (%, negative = inhibition) at 1uM” value read?
A: Its value is 11.6%.

Q: For `CCC1(c2ccccc2)NC(=O)N(CC(=O)Nc2cc(S(=O)(=O)N3CCCCCC3)ccc2OC)C1=O` (centres unmarked), which “hERG current change (%, negative = inhibition) at 1uM” value is on record?
A: The value was 5.11%.

Q: With `O=C(COc1ccc2c(C(F)(F)F)cc(=O)oc2c1)Nc1ccc(N2CCOCC2)cc1` as the compound, how does the “hERG current change (%, negative = inhibition) at 1uM” value read?
A: Its value is 6.04%.

Q: Which “hERG current change (%, negative = inhibition) at 1uM” value does the source give for `CCOC(=O)c1sc(NC(=O)c2ccc(Cl)s2)cc1C` here?
A: Its value is -0.539%.

Q: Which “hERG current change (%, negative = inhibition) at 1uM” value does the source give for `N#CC1(NC(=O)Cn2ncc(Cl)c(Cl)c2=O)CCCCC1` here?
A: Its value is 24.1%.

Q: `CC1CCCC(NC(=O)COC(=O)/C=C/c2ccc(S(=O)(=O)N3CCOCC3)cc2)C1C` (centres unmarked) was tested. Which “hERG current change (%, negative = inhibition) at 1uM” value did it give?
A: Its value is 3.56%.

Q: How did the “hERG current change (%, negative = inhibition) at 1uM” value turn out when `CN(C)S(=O)(=O)Oc1ccsc1C(=O)Nc1cccc(Cl)c1Cl` was run?
A: Its value is -6.59%.

Q: `COc1ccc(CCN2C(=O)CS/C2=N\NC(=O)c2cccs2)cc1OC` was tested. Which “hERG current change (%, negative = inhibition) at 1uM” value did it give?
A: The value was 6.09%.

Q: For `COC(CNC(=O)c1c[nH]c2ccc(S(=O)(=O)N3CCOCC3)cc2c1=O)OC`, which “hERG current change (%, negative = inhibition) at 1uM” value is on record?
A: The value was 3.17%.

Q: `CCN(CC)CCNC1=NCCn2c1cc1cc(OC)ccc12.Cl` was tested. Which “hERG current change (%, negative = inhibition) at 1uM” value did it give?
A: The value was -45%.

Q: For `Cc1cc2cc(CNC(=S)NC3CCCCC3)ccc2n1C`, which “hERG current change (%, negative = inhibition) at 1uM” value is on record?
A: Its value is 7.95%.

Q: With `COC(=O)c1cc(Br)c(=O)n(Cc2ccc(C(=O)O)cc2)c1` as the compound, how does the “hERG current change (%, negative = inhibition) at 1uM” value read?
A: The value was 17%.

Q: `COc1ccc(OC)c(N=Cc2c(O)[nH]c3ccccc23)c1` was tested. Which “hERG current change (%, negative = inhibition) at 1uM” value did it give?
A: Its value is 5.55%.

Q: How did the “hERG current change (%, negative = inhibition) at 1uM” value turn out when `COc1ccc(CNC(=O)CN(Cc2ccc(OC)cc2)C(=O)CCC(=O)Nc2ccccn2)cc1` was run?
A: Its value is -17.9%.

Q: For `CCOc1ccc(C(=O)Nc2ccccc2CC)cc1[N+](=O)[O-]`, which “hERG current change (%, negative = inhibition) at 1uM” value is on record?
A: The value was 0.822%.

Q: Which “hERG current change (%, negative = inhibition) at 1uM” value does the source give for `CCOc1cc2c(cc1OCC)C(c1ccc(OC)c(OC)c1)N(c1ccc(C(=O)O)cc1)C(=O)C2` (centres unmarked) here?
A: Its value is 19.3%.

Q: How did the “hERG current change (%, negative = inhibition) at 1uM” value turn out when `CCCN(CC(=O)NC(=O)NC1CCCCC1)CC(=O)Nc1cc(Cl)ccc1Cl` was run?
A: The value was 11.7%.

Q: How did the “hERG current change (%, negative = inhibition) at 1uM” value turn out when `COCCN(C(=O)CSc1nc2ccccc2c(=O)n1C(C)COC)c1c(N)n(Cc2ccccc2)c(=O)[nH]c1=O` (centres unmarked) was run?
A: The value was 13.1%.

Q: With `CC(C)(C)CN1C(=O)C(=O)NC[C@@H]1Cc1ccc(O)cc1` as the compound, how does the “hERG current change (%, negative = inhibition) at 1uM” value read?
A: Its value is 15.4%.

Q: For `CCOC(=O)c1cccc(NC(=O)CSc2nc3ccccc3c(=O)n2CC)c1`, which “hERG current change (%, negative = inhibition) at 1uM” value is on record?
A: The value was 12.4%.

Q: Which “hERG current change (%, negative = inhibition) at 1uM” value does the source give for `CCn1cc(C(=O)O)c(=O)c2cnc(N3CCN(C(=S)Nc4ccccc4Cl)CC3)nc21` here?
A: Its value is 8%.

Q: How did the “hERG current change (%, negative = inhibition) at 1uM” value turn out when `COc1ccc(Br)cc1-c1noc(-c2ccncc2)n1` was run?
A: The value was 15.9%.

Q: For `O=C(NC1CCCCCC1)C1CCN(C(=O)c2ccc(Br)cc2)CC1`, which “hERG current change (%, negative = inhibition) at 1uM” value is on record?
A: The value was 7.07%.

Q: How did the “hERG current change (%, negative = inhibition) at 1uM” value turn out when `OCCC1CN(Cc2cnc(N3CCCC3)s2)CCN1Cc1ccccc1` (centres unmarked) was run?
A: The value was 16%.

Q: How did the “hERG current change (%, negative = inhibition) at 1uM” value turn out when `CCC(c1nnnn1C(C)(C)C)N(Cc1ccco1)Cc1cc2cccc(C)c2[nH]c1=O` (centres unmarked) was run?
A: Its value is 3.3%.

Q: With `Cc1ccc(C(=O)NC(=S)Nc2ccc(CN3CCOCC3)cc2)cc1` as the compound, how does the “hERG current change (%, negative = inhibition) at 1uM” value read?
A: Its value is 9.39%.

Q: Which “hERG current change (%, negative = inhibition) at 1uM” value does the source give for `CCc1cc(N2CCOCC2)cc2c1[nH]c1ccccc12` here?
A: Its value is 4.09%.

Q: With `CCOC(=O)CCCNC(=O)CCNC(=O)c1ccc(OC(C)C)cc1` as the compound, how does the “hERG current change (%, negative = inhibition) at 1uM” value read?
A: The value was 8.34%.

Q: Which “hERG current change (%, negative = inhibition) at 1uM” value does the source give for `CC(=O)n1c2ccccc2c2c1c1ccccc1n2C` here?
A: The value was 5.83%.

Q: With `COc1cccc(CN2CC(C(=O)N3CCCO3)CCC2=O)c1` (centres unmarked) as the compound, how does the “hERG current change (%, negative = inhibition) at 1uM” value read?
A: Its value is 8.39%.

Q: `O=Nc1c(O)n(Cc2cccc(Cl)c2)c2ccccc12` was tested. Which “hERG current change (%, negative = inhibition) at 1uM” value did it give?
A: The value was 10.8%.

Q: `Cc1cc(C)c(NC(=O)CN(C)C(=O)c2ccc(OCc3ccccc3)cc2)c(C)c1` was tested. Which “hERG current change (%, negative = inhibition) at 1uM” value did it give?
A: Its value is 12.9%.

Source: article PMC4336329 (PLoS ONE, 2015)
